Source: PubChem BioAssay AID686979 (National Center for Advancing Translational Sciences (NCATS), 2013)
“And” between values parts separate entries of the source, which are not always exact repeats. Identical values can stand only once. Hit rate of the full screen: of about 420,000 compounds, about 50,000 (12%) were called active. This list was built around the results that the source calls inconclusive (neither active nor inactive); the mix of calls is not that of the screen. The call rests on the fitted dose curve; in most records, active means well fitted inhibition curve with a large enough effect; inconclusive means small, poorly fitted or top-dose-only effect; inactive means flat fitted curve, though single readings scatter. Potencies of inconclusive entries are doubtful fits and often do not repeat.

assay: qHTS for Inhibitors of human tyrosyl-DNA phosphodiesterase 1 (TDP1): qHTS in cells in presence of CPT; conditions: chicken DT40 Tdp1-/-;hTDP1 cells + 20 nM CPT, ATP luminescence, 48 h; activity change, negative = growth inhibition: at 46.2 µM (top of the series); further: nearly all actives have a fitted effect of over 55% in size
Summary of the method: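 Cell growth measured by CellTiter-Glo luminescence after a minimum 48 h, 37 C compound exposure with 20 nM CPT in Tdp1-knockout DT40 cells stably expressing hTDP1, seeded 400/well; qHTS titration format.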
On the % scale 0 is the no-effect control and ±100 the full control effect; potency means the concentration at half of the fitted maximal effect; tags describe the fitted curve by direction and shape.

For `Cc1ccc(C)c(CSC2=NCCN2C(=O)Cc2ccc([N+](=O)[O-])cc2)c1`, which Potency is on record?
The Potency was inconclusive: 29.1 µM [inhibitor, single point].

For `N#Cc1ncc(Cc2ccccc2)nc1C#N`, which Potency is on record?
Its Potency is inconclusive: 29.1 µM [inhibitor, single point].

With `c1ccc(-c2n[nH]c(-c3ccccc3)c2-c2nc3ccccc3[nH]2)cc1` as the compound, how does the Potency read?
The Potency was inconclusive: 29.1 µM [inhibitor, single point].

For `CCOC(=O)c1c(NC(=O)CSc2nc(-c3ccccc3)cc(C(F)(F)F)n2)sc(C)c1C`, which Potency is on record?
The Potency was “inactive”.

For `Cn1cc(CCCC(=O)NCc2ccccc2Cl)c2ccccc21`, which Potency is on record?
Its Potency is inconclusive: 25.9 µM [inhibitor, single point].

For `O=C(COC(=O)[C@H](Cc1ccccc1)NC(=O)c1ccco1)NC(c1ccccc1)c1ccccc1`, which Potency is on record?
The Potency was inconclusive: 20.6 µM [inhibitor, single point].

With `Cc1c(C(=O)NCC2CCCN(C)C2)cnn1-c1ncc2c(n1)-c1ccccc1CCC2` (stereo unspecified) as the compound, how does the activity change, negative = growth inhibition read?
Its activity change, negative = growth inhibition is inactive: -5.17% [at 9.04 µM].

For `O=C(CCCN1C(=O)c2ccccc2C1=O)Nc1ccc2c(c1)OCCO2`, which Potency is on record?
The Potency was “inactive”.

With `CC(=O)Nc1nnc(SCc2cc(=O)c3cccc(Cl)c3[nH]2)s1` as the compound, how does the Potency read?
Its Potency is inconclusive: 25.9 µM [inhibitor, single point].

Which Potency does the source give for `CCCCn1c(NC(=O)c2ccc(Br)o2)c(S(=O)(=O)c2ccccc2)c2nc3ccccc3nc21` here?
The Potency was inconclusive: 20 µM [inhibitor, single point].

Which Potency does the source give for `CCOc1ccc(CCNC(=O)Cn2nnc(-c3ccc(C(F)(F)F)cc3)n2)cc1OCC` here?
The Potency was “inactive”.

With `O=C(NCCc1c[nH]c2ccccc12)Nc1ccccc1` as the compound, how does the Potency read?
Its Potency is “inactive”.

With `COC(=O)c1cc(NS(=O)(=O)c2ccc(Cl)c(N3C(=O)c4ccc(C(=O)O)cc4C3=O)c2)cc(C(=O)OC)c1` as the compound, how does the Potency read?
Its Potency is “inactive”.

For `COc1ccc(S(=O)(=O)N2CCN(c3ccc4nnc(-c5ccccc5)n4n3)CC2)cc1`, which Potency is on record?
Its Potency is active: 11.6 µM.

For `Cc1ccc(S(=O)(=O)N(CC(=O)N2CCCCCC2)c2ccccc2)cc1`, which Potency is on record?
Its Potency is inconclusive: 29.1 µM [inhibitor, single point].

For `Cc1cc2nc(-c3ccccc3)c(CC3CCCCC3)n2c(C)c1Br`, which Potency is on record?
Its Potency is active: 23.1 µM.

Which Potency does the source give for `Cc1cc(C)cc(Nc2nc3ccccc3c(=O)[nH]2)c1` here?
Its Potency is “inactive”.

With `CCOC(=O)N=S(N)(=O)c1ccc(Cl)cc1` (stereo unspecified) as the compound, how does the Potency read?
The Potency was inconclusive: 18.4 µM [inhibitor, single point].

For `CCn1c(=S)sc2c(=O)n(CC(=O)Nc3ccccc3)c(C)nc21`, which Potency is on record?
Its Potency is inconclusive: 29.1 µM [inhibitor, single point].

Which Potency does the source give for `C/C=C(\C)CN1CCN(c2ccc(C)cc2)CC1` here?
The Potency was “inactive”.

With `COc1ccc(CNC(=O)[C@@H](NC(=O)C2CCN(S(=O)(=O)c3ccc(C)cc3)CC2)C(C)C)cc1OC` as the compound, how does the Potency read?
The Potency was inconclusive: 29.1 µM [inhibitor, single point].

For `CC(C)[C@H](NC(=O)c1ccccc1)C(=O)OCC(=O)NCCC1=CCCCC1`, which Potency is on record?
The Potency was inconclusive: 14.6 µM [inhibitor, partial curve].

Which Potency does the source give for `CC(C)(C)NC(=O)C(c1ccc(O)cc1)N(Cc1ccco1)C(=O)Cn1nnc(-c2cccs2)n1` (stereo unspecified) here?
Its Potency is inconclusive: 25.9 µM [inhibitor, single point].

Which Potency does the source give for `COCCCNc1ccn2nc(-c3cccc(OCc4ccccc4)c3)cc2n1` here?
The Potency was inconclusive: 25.9 µM [inhibitor, single point].

For `COc1ccccc1OCCn1cc(/C=N/n2cnnc2)c2ccccc21`, which Potency is on record?
The Potency was inconclusive: 25.9 µM [inhibitor, single point].

Which Potency does the source give for `O=C(NC1CC1)c1cccc(NC(=O)c2cnn(-c3ccccc3)n2)c1` here?
Its Potency is active: 23.1 µM.

With `CN(/N=C/c1cc(Br)cc(Br)c1O)c1cccc(C(F)(F)F)n1` as the compound, how does the Potency read?
Its Potency is active: 7.31 µM.

With `O=C(Nc1ccccc1-c1nnc(SCc2ccccc2Cl)o1)c1ccccc1` as the compound, how does the Potency read?
The Potency was inconclusive: 29.1 µM [inhibitor, partial curve].

For `O=C(CCl)NCc1cc(-c2ccc(Cl)cc2)no1`, which Potency is on record?
Its Potency is active: 10.3 µM.

For `CCc1nc(N2CCN(C(=O)CCl)CC2)c2c3c(sc2n1)CC(C)CC3` (stereo unspecified), which Potency is on record?
The Potency was active: 3.26 µM.

For `O=[N+]([O-])c1nn(-c2ccc3c(c2)OCCO3)n(O)c1=NCc1ccccc1Cl`, which Potency is on record?
The Potency was “inactive”.

Which Potency does the source give for `O=C(CCCOc1ccccc1)N1CCN(c2ccc(F)cc2)CC1` here?
The Potency was inconclusive: 23.1 µM [inhibitor, single point].

With `CC(=O)N1c2ccc(S(=O)(=O)N3CCCCCC3)cc2CC1C(=O)NCc1ccccc1F` (stereo unspecified) as the compound, how does the Potency read?
Its Potency is “inactive”.

With `CCN(CC)CCOC(=O)c1cccnc1` as the compound, how does the Potency read?
Its Potency is “inactive”.

With `CNC(=O)c1[nH]cnc1C(=O)Nc1cccc(OC)c1` as the compound, how does the Potency read?
Its Potency is inconclusive: 7.31 µM [inhibitor, partial curve].

With `CCOC(=O)N1CCN(c2c(-c3ccccc3)c3cc(Cl)ccc3[nH]c2=O)CC1` as the compound, how does the Potency read?
The Potency was inconclusive: 29.1 µM [inhibitor, single point].

With `O=C(NCC1CC1)C1Cc2c(-c3ccccc3Oc3ccccc3)ccnc2O1` (stereo unspecified) as the compound, how does the Potency read?
Its Potency is inconclusive: 14.6 µM [inhibitor, partial curve].

Which Potency does the source give for `O=c1c(C(c2nnnn2C2CCCCC2)N2CCCCC2)coc2ccc(Cl)cc12` (stereo unspecified) here?
Its Potency is inconclusive: 29.1 µM [inhibitor, single point].

With `Cn1nc(C(C)(C)C)cc1C(=O)N1CCCCC1c1cc(C(=O)Nc2ccccc2)no1` (stereo unspecified) as the compound, how does the Potency read?
Its Potency is active: 20.6 µM.

With `Cc1ccc(C)c(N2CCN(c3ccc([N+](=O)[O-])cn3)CC2)c1` as the compound, how does the Potency read?
Its Potency is inconclusive: 29.1 µM [inhibitor, single point].

For `Cc1ccc(CNc2ccc(-c3nc(-c4ccccn4)no3)cc2[N+](=O)[O-])cc1`, which Potency is on record?
Its Potency is inconclusive: 16.4 µM [inhibitor, partial curve].

For `Cc1cc(C)c2cc(C(=O)N3CCN(c4ncccc4C(F)(F)F)CC3)[nH]c2c1`, which Potency is on record?
Its Potency is inconclusive: 25.9 µM [inhibitor, single point].

Which Potency does the source give for `COC(=O)c1c(C)[nH]c(C(=O)OC(C)C(=O)NC2CCCCC2C)c1C` (stereo unspecified) here?
Its Potency is active: 11.6 µM.

For `O=C(c1ccc([N+](=O)[O-])cc1)N1CCN(c2ccc(Nc3ccccc3)nn2)CC1`, which Potency is on record?
The Potency was inconclusive: 29.1 µM [inhibitor, single point].

Which Potency does the source give for `CCOc1ccc(CCNC(=O)CN2C(=O)c3cccnc3Oc3ccc(Cl)cc32)cc1` here?
Its Potency is inconclusive: 23.1 µM [inhibitor, single point] and inconclusive: 29.1 µM [inhibitor, single point].

Which Potency does the source give for `CNc1cncc(-c2cc(OC)ccc2OC)n1` here?
Its Potency is “inactive”.

For `O=C(Nc1cc(S(=O)(=O)N2CCCCC2)ccc1N1CCCCC1)c1ccncc1`, which Potency is on record?
Its Potency is inconclusive: 29.1 µM [inhibitor, single point].

With `c1coc(CSSCc2ccco2)c1` as the compound, how does the Potency read?
Its Potency is inconclusive: 25.9 µM [inhibitor, single point].

With `CCOc1ccc(S(=O)(=O)NCCC(=O)NCC2CCCO2)cc1` (stereo unspecified) as the compound, how does the Potency read?
Its Potency is “inactive”.

Which Potency does the source give for `CN(CC(=O)NNC(=O)c1cccnc1)S(=O)(=O)c1cc(Cl)ccc1Cl` here?
Its Potency is “inactive”.

For `COc1cc(CC(=O)Nc2ccc(S(=O)(=O)N(C)C)cc2)cc(OC)c1OC`, which Potency is on record?
The Potency was inconclusive: 8.2 µM [inhibitor, partial curve].

For `CN(c1ccc(C(=O)N2CCCCC2)cc1)S(=O)(=O)c1ccccc1`, which Potency is on record?
Its Potency is active: 13 µM.

For `Cc1cccc(-c2nc(CN3CCCC(C(=O)NC4CCC(C)CC4)C3)c(C)o2)c1` (stereo unspecified), which Potency is on record?
The Potency was inconclusive: 23.1 µM [inhibitor, single point].

Which Potency does the source give for `Brc1cc2c(cc1/C=N/Nc1nc(N3CCCC3)nc(N3CCOCC3)n1)OCO2` here?
The Potency was active: 25.9 µM.

With `CC(=O)Nc1ccc(NC(=O)c2ccc(N(C)S(=O)(=O)c3ccc(C)cc3)cc2)cc1` as the compound, how does the Potency read?
The Potency was “inactive”.

For `Cc1cc(Cl)ccc1OCCCC(=O)OCC(=O)Nc1cccc(S(N)(=O)=O)c1`, which Potency is on record?
Its Potency is “inactive”.

For `Cc1cc(=O)[nH]c2c1c(C)nn2C1CCCC1`, which activity change, negative = growth inhibition is on record?
Its activity change, negative = growth inhibition is inconclusive: -30.2% [inhibitor].

For `O=S(=O)(c1ccccc1)N1N=C(c2ccc(Br)cc2)CC1c1ccco1` (stereo unspecified), which Potency is on record?
The Potency was active: 16.4 µM.

With `CC(=O)CSc1nsc(SCC(C)=O)c1C#N` as the compound, how does the Potency read?
The Potency was active: 18.4 µM.

For `O=C(Nc1cccc(Cl)c1N1CCCC1)c1ccc([N+](=O)[O-])o1`, which Potency is on record?
Its Potency is “inactive”.

For `O=C(Nc1nnc(-c2ccccc2)o1)c1nc2ccccc2s1`, which Potency is on record?
The Potency was inconclusive: 29.1 µM [inhibitor, single point].

For `Cc1cc(C(=O)N/N=C/c2ccc(N(C)C)o2)cs1`, which Potency is on record?
Its Potency is active: 23.1 µM.

With `CC(C)(C)S(=O)(=O)/C(C#N)=C/c1sccc1C1OCCO1` as the compound, how does the Potency read?
The Potency was inconclusive: 29.1 µM [inhibitor, single point].

Which Potency does the source give for `c1ccc2sc(NN=C3CCCCCC3)nc2c1` here?
Its Potency is inconclusive: 29.1 µM [inhibitor, single point].

For `O=C(NCc1ccccc1Cl)c1ccc(Nc2nc3ccccc3n3nnnc23)cc1`, which Potency is on record?
Its Potency is inconclusive: 18.4 µM [inhibitor, single point].

With `COc1cccc(C(O)c2ncc(-c3ccc(Cl)cc3)[nH]2)c1` (stereo unspecified) as the compound, how does the Potency read?
The Potency was inconclusive: 29.1 µM [inhibitor, partial curve, poor fit].

For `Cc1ccc(CN2CCC[C@]3(N[C@H](c4ccc(C)cc4)[C@@H]4C(=O)N(C)C(=O)[C@@H]43)C2=O)cc1`, which activity change, negative = growth inhibition is on record?
Its activity change, negative = growth inhibition is inconclusive: -32.9% [inhibitor].

With `CCc1ccc(C2c3c(-c4cc(C)ccc4O)n[nH]c3C(=O)N2Cc2cccnc2)cc1` (stereo unspecified) as the compound, how does the Potency read?
Its Potency is inconclusive: 18.4 µM [inhibitor, single point].

Which activity change, negative = growth inhibition does the source give for `CCCCCCCc1nn2c(=O)cc(O)nc2s1` here?
The activity change, negative = growth inhibition was inconclusive: -30.8% [inhibitor].

Which Potency does the source give for `Cc1ccc(C)n1-n1c(C)nc2scc(-c3cccs3)c2c1=O` here?
The Potency was inconclusive: 29.1 µM [inhibitor, single point].

Which Potency does the source give for `COCCNc1nc2c(c(=O)n(C)c(=O)n2C)n1CCCc1ccccc1` here?
Its Potency is active: 14.6 µM.
